# Test results taken from article PMC12040169 (PLOS Biology, 2025).
# The other results are listed elsewhere or left out.
# Tested on: T1, C. trachomatis L2/434/Bu expressing GFP (CTL2-GFP)
# T1 construct: L2/434/Bu GFP intracellular growth in HeLa cells
# Set-up: species or system HeLa; C. trachomatis total inclusion area by high-content imaging, normalised to DMSO
# Settings: total inclusion area; 28.5 h, 10 µM; inhibitor
# Method in brief: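 Following bulk GFP and resorufin fluorescence reads, infected cells were fixed, Hoechst-stained and imaged on a high-content platform. Inclusion total area and number per well served as growth proxies; nuclei counts indicated host viability. MICs were derived as for the fluorescence assay.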
row,Compound,% of control remaining
1,C[C@@H](Cn1nnc2ccccc21)NC(=O)Cc1cccc(F)c1 [CBK282306],97.44
2,CC(C)(C)c1ccccc1NC(=O)N(CCCN)Cc1cc(F)cc(F)c1 [CBK034697C],43.7462
3,O=C(O)c1ccccc1-c1ccccc1C(=O)NCCCO [CBK267197],116.579
4,O=C(Cn1c(NCCCO)nc2ccccc21)c1cccs1 [CBK023894B],80.8113
5,CC(CN1CCCCC1)OC(=O)COc1ccc(Br)cc1 (stereo not shown) [CBK265326C],100.954
6,COc1ccc(-n2c(=O)c3ccccc3n(CC(=O)NC3CCCC3)c2=O)cc1 [CBK287574],109.304
7,Nc1cc(N)nc(SCC(=O)Nc2ccc(Oc3ccccc3)cc2)n1 [CBK266749],90.4088
8,O=C(c1cccs1)N1CC(n2nc(-c3cccs3)ccc2=O)C1 [CBK283347],97.4784
9,COc1cc(/C=N/Nc2nc(-c3ccccc3)cc(-c3ccc(OC)c(OC)c3)n2)ccc1O [CBK262841],32.6828
10,CCOC(=O)CNS(=O)(=O)c1cccs1 [CBK044958],121.384
11,O=[N+]([O-])c1ccccc1OCCNCc1ccccc1 [CBK265511G],89.4615
12,CCOC(=O)N1CCC(NC(=O)N2CCN(CCc3ccccc3)CC2)CC1 [CBK158938],112.772
13,C[C@H](Nc1cncc(-c2cccc(N(C)C)c2)n1)c1ccccc1 [CBK065699],59.7089
14,c1ccc(-c2c(-c3ccccc3)n(Cc3ccco3)c3ncn4nc(-c5ccncc5)nc4c23)cc1 [CBK265298],119.135
15,O=C(O)c1[nH]c2ccccc2c1C(c1ccsc1)c1c(C(=O)O)[nH]c2ccccc12 [CBK267811],16.8855
16,O=C(O)c1ccc(Nc2nc3ccccc3nc2NS(=O)(=O)c2ccc(Cl)cc2)cc1 [CBK296072],103.322
17,O=C(CSc1nc(-c2ccccc2)cc(-c2ccccc2)n1)Nc1cccc([N+](=O)[O-])c1 [CBK263896],98.9181
18,CCc1nn(CC(=O)NC(C)(C)C)c(=O)c2cc3ccsc3n12 [CBK284183],66.8095
19,CCNC(=O)Nc1ncc(-c2ccsc2)c2cccnc12 [CBK070686],62.5554
20,CCC(c1c(O)c2ccccc2oc1=O)c1cccc2ccccc12 (stereo not shown) [CBK016684],75.581

row,Compound,% of control remaining
1,COc1ccc([C@@]23CC[C@@H](NC(=O)Nc4cc(C)c(C)cc4[N+](=O)[O-])C[C@@H]2N(C)CC3)cc1OC [CBK036478T],97.4419
2,Cc1ccc(C(=O)N2CCN(Cc3ccccc3)CC2)cn1 [CBK200170],91.0543
3,CNC1CCCCCC1(O)c1ccccc1 (stereo not shown) [CBK005073],93.0831
4,O=C(Cc1cccs1)N1CCC(c2nnc3n2CCCCC3)CC1 [CBK284606],92.9883
5,Cc1nc(CN2CCC(Cc3ccccc3)CC2)cs1 [CBK126438],48.0597
6,CCOC(=O)N1CCN(C(=O)COc2cccc3ccccc23)CC1 [CBK262992],95.1424
7,O=C(O)c1ccc(CSc2nnc(Cc3ccccc3)[nH]2)o1 [CBK269208],87.7939
8,O=C(Nc1nc2ccc(Cl)cc2s1)c1nc(SCc2ccccc2)ncc1Cl [CBK268825],103.052
9,O=C(O)CCCC(=O)Nc1ccc(C(=O)O)cc1 [CBK261534],85.8882
10,CNC(=O)Nc1ccc(C(C)(C)C)cc1Br [CBK086434],144.882
11,Cc1nn(CCC#N)c(C)c1[C@@H]1C=C[C@@H](NC(=O)NCc2ccccc2)C1 [CBK289174],88.0878
12,COc1cc(CC(=O)Nc2cccc(-c3ccc(OC4CCNCC4)cc3)n2)cc(OC)c1OC [CBK138351],85.2914
13,N#CCCCN1CCC(Oc2nccnc2OCc2cccc(C(F)(F)F)c2F)CC1 [CBK153646],77.8603
14,CCOC(=O)C(Cc1ccccc1)NC(=O)c1cn[nH]c1C (stereo not shown) [CBK305499],42.9501
15,Cc1ccc(C(=O)O)cc1NC(=O)c1ncn(-c2ccccc2)n1 [CBK269181],107.368
16,CC(NC(=O)CCN1CCN(C)CC1)c1cc2cc(Cl)ccc2o1 (stereo not shown) [CBK281601],66.9175
17,N#Cc1c(NC(=O)c2cc(S(=O)(=O)N3CCCCC3)c(Cl)cc2Cl)sc2c1CCCC2 [CBK264579],92.9126
18,Cc1ccc(C(=O)N2CCN(S(=O)(=O)c3sc(C(=O)O)c(C)c3C(=O)O)CC2)s1 [CBK297150],109.325
19,O=C1CC(c2ccccc2)=NN1c1nc(-c2ccccc2)cc(-c2ccc(F)cc2)n1 [CBK261717],111.317
20,CCN(CCO)c1ccc(Nc2nc(-c3c(OC)cccc3OC)cn3ccnc23)cc1 [CBK066267],84.6696
